# From PubChem BioAssay AID488969 (Vanderbilt High Throughput Screening Facility, 2010)
# The full ranking holds about 110,000 compounds; the median of “z-score” is about -0.1, and the highest 2% start at about 2. Some of the results follow. Active and inactive are the calls of the source.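 How the source made its calls: active means z-score in the third read window above 3 or below -3; inactive means the rest.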
# Molecular target: Metabotropic glutamate receptor 8 (Rattus norvegicus) (UniProt P70579)
# Experiment: rat mGluR8 modulators via GIRK flux, primary screen, cell-based, thallium flux, HTS (AID 488969)
# Settings: HEK293 rat mGluR8, GIRK (G protein-gated inwardly rectifying potassium channel) thallium flux, FluoZin2; at 10 µM; stronger effect = higher value; submaximal glutamate (EC20) added with thallium
# Sequence of UniProt P70579 (P70579 whole entry, looked up): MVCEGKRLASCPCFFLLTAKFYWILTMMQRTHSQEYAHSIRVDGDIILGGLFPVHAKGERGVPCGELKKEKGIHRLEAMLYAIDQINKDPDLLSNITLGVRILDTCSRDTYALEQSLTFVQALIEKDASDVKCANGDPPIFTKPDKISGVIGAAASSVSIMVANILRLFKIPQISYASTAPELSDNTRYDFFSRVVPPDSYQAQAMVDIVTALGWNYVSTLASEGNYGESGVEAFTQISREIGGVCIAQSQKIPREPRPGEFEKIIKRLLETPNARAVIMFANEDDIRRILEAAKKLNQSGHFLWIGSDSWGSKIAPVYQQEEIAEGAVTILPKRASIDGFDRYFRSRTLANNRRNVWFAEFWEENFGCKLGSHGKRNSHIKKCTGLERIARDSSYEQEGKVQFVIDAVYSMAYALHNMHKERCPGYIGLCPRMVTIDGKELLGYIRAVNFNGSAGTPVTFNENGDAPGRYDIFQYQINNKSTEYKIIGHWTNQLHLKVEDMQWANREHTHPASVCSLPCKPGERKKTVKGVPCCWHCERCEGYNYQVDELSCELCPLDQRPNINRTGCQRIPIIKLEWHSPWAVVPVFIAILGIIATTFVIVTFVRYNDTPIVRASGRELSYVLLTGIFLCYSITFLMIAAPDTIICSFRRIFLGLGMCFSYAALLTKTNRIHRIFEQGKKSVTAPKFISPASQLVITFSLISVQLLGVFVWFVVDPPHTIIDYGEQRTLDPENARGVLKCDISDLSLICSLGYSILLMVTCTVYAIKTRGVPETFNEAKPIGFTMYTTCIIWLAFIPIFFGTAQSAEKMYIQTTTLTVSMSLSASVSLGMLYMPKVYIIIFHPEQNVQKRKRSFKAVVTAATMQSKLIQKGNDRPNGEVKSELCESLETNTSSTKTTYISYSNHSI
row,SMILES,z-score
1,O=C(CSc1ccc2nnc(-c3cccc(F)c3)n2n1)N1CCCc2ccccc21,-0.911
2,Cc1cc(=O)[nH]c(SCc2cccc(F)c2)n1,-0.123
3,CC(C)(C)SCCNC(=O)/C=C/c1ccc([N+](=O)[O-])cc1,0.305
4,O=C(CNc1cccc2ccccc12)N/N=C/C(Br)=C/c1ccccc1,0.0269
5,CC(=O)N1CCc2cc(Br)cc(S(=O)(=O)NCCCN3CCC(C)CC3)c21,0.0911
6,O=C(NC1CCCCC1)N(Cc1ccccc1)Cc1ccco1,-1.83
7,N#Cc1c(N)nc2c3c(sc(=N)c2c1N)NC(=O)CC3c1ccccc1Cl (configuration not stated),0.257
8,COc1ccccc1NC(=O)c1sc2nc(-c3ccco3)ccc2c1N,0.132
9,CCCCCc1ccc(-c2ccc(=O)[nH]n2)cc1,0.519
10,COC(=O)c1cc(OC)c(OC)cc1-n1cnc2cc(OC)c(OC)cc2c1=O,-0.875
11,Cn1cccc1Cc1nnc(SCC(=O)N2CCOCC2)n1-c1ccc(F)cc1,-0.171
12,N#CCCn1nc(-c2ccc([N+](=O)[O-])cc2)cc1Nc1ccccc1NC(=O)C(F)(F)F,0.0687
13,COc1ccc(Nc2nc(C(C)(C)C)nc3c2nnn3Cc2ccccc2Cl)cc1OC,-0.351
14,CCOC(=O)c1c(NC(=S)Nc2ccc(F)cc2)sc2c1CCC2,-0.154
15,CCOC(=S)NC(=O)c1sc2ccccc2c1Cl,active: 11.1
16,COc1cccc(-n2c(Cc3cc(=O)[nH]c(=O)[nH]3)nnc2SCC(=O)Nc2ccccc2)c1,-0.16
17,COc1ccc(OCC(=O)N2c3ccccc3CCc3ccccc32)cc1,-0.352
18,Cc1cc(C)nc(SC2=CS(=O)(=O)c3ccccc32)n1,1.3
19,Cc1cccc(C(=O)NNS(=O)(=O)c2ccccc2[N+](=O)[O-])c1,-0.0425
20,CC(C)c1ccc(-c2noc(C3CCCN(S(C)(=O)=O)C3)n2)cc1 (configuration not stated),active: 5.82
21,Cc1ccc(NC(=O)CS(=O)CC(=O)NC2CCN(Cc3ccccc3)CC2)c(C)c1 (configuration not stated),0.0772
22,C/C=C/COC(=O)c1[nH]c2c(c1C)C(=O)CC(c1ccco1)C2 (configuration not stated),-0.237

row,SMILES,z-score
1,N#CCCN(C(=O)COC(=O)c1ccc(CNS(=O)(=O)c2ccc(F)c(Cl)c2)cc1)c1ccc(F)cc1,-0.724
2,O=C(CSc1oc(-c2ccco2)nc1S(=O)(=O)c1ccc(F)cc1)NCC1CCCO1 (configuration not stated),0.411
3,COc1ccc(CC(C)N2CCN(c3cccc(C(F)(F)F)c3)CC2)cc1OC (configuration not stated),-0.177
4,CCOC(=O)C(CC)Sc1nnc2cc(C)c3ccccc3n12 (configuration not stated),active: 7.83
5,O=C(CN(Cc1ccco1)C(=O)CCC(=O)Nc1ccccn1)NCCc1ccccc1,-0.367
6,O=C(CN1C(=O)C2C3C=CC(C3)C2C1=O)Nc1cccc(S(=O)(=O)N2CCCC2)c1 (configuration not stated),0.101
7,COc1cc2[nH]c(=O)n(CCCCCC(=O)NCCCN3CCCC3=O)c(=O)c2cc1OC,0.129
8,Cc1ccc(C)c(NS(=O)(=O)c2cc(C(=O)Nc3ccccc3-c3ccccc3)ccc2C)c1,-0.321
9,Cc1cnn(-c2cc(N/N=C/c3ccccc3Cl)ncn2)c1,-0.0708
10,CN(C)/C=C1\C(=O)N(c2ccc(Oc3ccccc3)cc2)CS1=O (configuration not stated),-0.175
11,CCCOC(=O)C1[C@H]2C(=O)N(C(C)c3ccc(OC)cc3)C[C@]23C=C[C@H]1O3 (some centres not stated),0.656
12,O=C(CNC(c1ccccc1)c1ccccc1)Nc1ccccc1-c1ccccc1,-0.705
13,O=C(Cn1c(=O)sc2ccccc21)Nc1ccc(S(=O)(=O)N2CCCC2)cc1,-0.343
14,O=C1COc2ccccc2CN1,-0.24
15,CC(C)OC(=O)CSc1nnc(-c2ccc(Cl)cc2Cl)n1N,-0.215
16,COc1ccccc1NC(=O)N(Cc1ccccc1)c1ccccn1,-0.245
17,Cc1csc(NC(=O)Cc2ccccc2[N+](=O)[O-])n1,1.01
18,O=C1CCCC(O)=C1C=Nc1ccc2c(c1)oc1ccccc12,-0.13
19,Clc1ccc(OCCSc2nnnn2C2CCCCC2)cc1,0.215
20,CCCCOCCCNC(=O)c1ccc(OC)cc1,0.194
21,Cc1cccc2nc(CSc3nc4ccccc4o3)cn12,1.34
22,Cc1cc(C)n(-c2nc3ccccc3c(=O)n2OCc2ccc(Cl)cc2)n1,-0.0989

row,SMILES,z-score
1,CCP(=O)(c1ccccc1)C(C)(C)O (configuration not stated),0.266
2,COc1ccc(NC(=O)CSc2nnc(Cc3cccn3C)n2-c2ccc(C)cc2)cc1OC,2.03
3,COCc1cc(Sc2c(Cl)cccc2Cl)nc(-c2ccccc2)n1,-0.0425
4,CC(C)=CC(=O)NCc1c(Cl)cccc1-n1cccc1,0.225
5,Cc1ccc(SCCCn2cncn2)cc1,-0.0811
6,Fc1ccc(N2CCN(c3ncnc4c3nnn4Cc3ccccc3Cl)CC2)cc1,-1.25
7,Cc1ccc(-c2noc(CN(C(=O)c3cccc(Br)c3)C(C)C)n2)cc1,0.0303
8,CC1CCCN(C(=O)c2ccc(COc3ccccc3Br)cc2)C1 (configuration not stated),-0.14
9,Cc1c(C(C)(C)C)c(C=S)n2ccccc12,-0.503
10,CCCNc1ccc(S(=O)(=O)N(C(C)C)C(C)C)cn1,-0.175
11,O=C1COc2ccc(C(=O)CSc3nnc(Cc4cccs4)n3-c3ccc(Cl)cc3)cc2N1,0.154
12,COc1ccc(C(=O)/C(=C\c2ccco2)N2C=CC=CC2=C(C#N)C#N)cc1,0.26
13,O=C(CCn1nc(-c2ccc(Cl)cc2)ccc1=O)NCCCN1CCCCCC1,-0.866
14,CCn1ncc(/C=N\NC(=O)c2ccc3c(c2)c(C)c(C)n3Cc2ccccc2)c1C,-0.321
15,COc1ccc(NS(=O)(=O)c2ccc(N)c(C(=O)O)c2)cc1,0.525
16,Nc1ccc2c3c(cccc13)CC2,0.094
17,Cc1ccc(/C=N/NC(=O)CSc2nnc(-c3ccc(Cl)cc3)n2-c2ccc(Cl)cc2)o1,-0.0979
18,Cc1ccc(-c2ccc(=O)n(CC(=O)Nc3cccc(C(=O)N4CCN(C)CC4)c3)n2)cc1,0.353
19,Cc1ccc(-n2nnnc2SCC(=O)c2c(N)n(CC(C)C)c(=O)n(C)c2=O)cc1,0.951
20,CC1(CC(=O)N/N=C/c2cc(Br)c(O)cc2O)OCCO1,0.149
21,Cc1nnn(C23CC4CC(CC(C4)C2)C3)n1,-0.708
22,CCOC(=O)c1sc(NC(=S)NC(=O)c2ccccc2Cl)c(C(=O)OCC)c1C,0.214

row,SMILES,z-score
1,O=[N+]([O-])c1cccc(S(=O)(=O)Nc2nc3ccccc3nc2Nc2cccc(S(=O)(=O)N3CCCCC3)c2)c1,-0.505
2,COc1ccc(Cc2nc(C(=O)Nc3ccc(Cl)cc3)cs2)cc1,-0.178
3,CC(C)CC(NC(=O)C1CCC(C)CC1)C(=O)N1CCN(c2ccccn2)CC1 (configuration not stated),-0.0421
4,COc1cc(C(C[N+](=O)[O-])c2c(C)[nH]c3ccccc23)cc(OC)c1OC (configuration not stated),-0.538
5,O=C(Nc1cccc(OC(=O)c2cccnc2)c1)c1cccnc1,-0.255
6,O=C(COC(=O)CCc1nc2ccccc2n1-c1ccccc1)Nc1ccc(N2CCCCC2)cc1,-0.204
7,O=C(COC(=O)CCC1CCCC1)Nc1nc2c(F)c(F)c(F)cc2s1,2.48
8,CC(C)(C)n1nc2c(c1NC(=O)Cc1cccc3ccccc13)CS(=O)C2 (configuration not stated),0.219
9,CC1(C)Cc2cccc(OCC(N)=O)c2O1,0.0489
10,COc1ccc2c(c1)CCc1c(C(=O)Nc3ccn(Cc4ccc(C)cc4)n3)noc1-2,-0.0713
11,CC(C)CNC(=O)c1ccc(COc2ccc(Cl)cc2Cl)o1,-0.116
12,CN(C)c1ccc(C(=O)OCc2ccc(Br)cc2)cc1,-0.588
13,NC(=S)N/N=C/c1ccc(-c2cc(Cl)ccc2Cl)o1,2.21
14,COC(=O)c1ccc(NS(=O)(=O)N(C)C)cc1,0.388
15,CC(=O)N(CC1CCCO1)C1(C(=O)NC2CCCC2)CCCCC1 (configuration not stated),0.278
16,Cc1ccc(NC(=O)CSCCc2ccccn2)nc1,0.022
17,Cc1ccc2cc(CN(CCN3CCOCC3)Cc3nnnn3Cc3ccco3)c(=O)[nH]c2c1C,-0.297
18,CCOc1nc(Nc2ccc(OC)c(Cl)c2)nc(OCC)n1,-0.625
19,COc1ccc(-n2c(NC(=O)c3ccco3)c(C#N)c3nc4ccccc4nc32)cc1,-0.0793
20,CC(=O)Nc1ccc(S(=O)(=O)N2CCN(c3nc(NC4CCCC4)c4ccccc4n3)CC2)cc1,-0.56
21,Cc1nnc(NC(=O)CSc2nnc(CNC(=O)C34CC5CC(CC(C5)C3)C4)n2C2CCCCC2)s1,-0.17
22,CC(=O)NC1C(=O)N(C)c2ccc(Br)cc21 (configuration not stated),0.175

row,SMILES,z-score
1,CCCCN(Cc1cc2ccccc2[nH]c1=O)C(=O)c1ccccn1,0.0191
2,Brc1cccc(-c2n[nH]c(-c3ccccc3)n2)c1,0.531
3,CCOc1cc(S(=O)(=O)NC2CC(C)(C)NC(C)(C)C2)ccc1F,-0.0984
4,COc1ccc(Nc2nc(-c3sc(NC(C)=O)nc3C)cs2)cc1,-1.8
5,COc1ccc(NC(=O)CSc2nnc(C3CCCCC3)o2)c(OC)c1,1.08
6,CN(CC(=O)Nc1ccc(F)c(F)c1)S(=O)(=O)c1cccc2nsnc12,0.131
7,CC(C(=O)NC1CCCc2ccccc21)N1CCN(c2ccc(F)cc2)CC1 (configuration not stated),-0.363
8,COc1ccc(-n2ncc3c(NCc4cccs4)ncnc32)cc1,-2.44
9,Cc1cc(C)cc(NC(=O)CSc2nc3c(oc4ccccc43)c(=O)n2-c2ccccc2)c1,-0.312
10,CN(CCCC(=O)Nc1ccncc1)S(=O)(=O)c1ccc(Cl)cc1,-0.0633
11,COc1cc(NS(=O)(=O)c2cccc3nsnc23)cc(OC)c1,-0.141
12,COc1cccc(Nc2nc(-c3cccc(N4C(=O)c5ccccc5C4=O)c3)cs2)c1,0.0481
13,COc1ccc(CCNC(=O)Cc2ccc(OCc3ccccc3)c(OC)c2[N+](=O)[O-])cc1OCc1ccccc1,-0.238
14,C/C(=N\OCC(=O)NCC(F)(F)F)c1cc2ccccc2o1,-0.212
15,CCOc1ccc(S(=O)(=O)Nc2nc3ccccc3nc2N2CCN(C)CC2)cc1,-0.208
16,CC(C)NC(=O)c1cc(=O)n(C)c(=O)n1C,-0.189
17,O=C(CSc1nc(-c2ccco2)cc(C(F)(F)F)n1)Nc1ccc(C(=O)N2CCCCC2)cc1,-0.128
18,O=[N+]([O-])c1ccc(Oc2ccc(F)cc2)c2ccncc12,-0.992
19,Clc1ccc(COn2c(-c3ccccc3)nc3ccccc32)cc1,-0.356
